Whole data set: some 33,000 sequences, median “E-score (dimensionless, -0.5 to 0.5)” near -0.058, cut for the highest 2% near 0.35. The list shows a part of the results.

The test system of this experiment is MvaT. Kind of experiment: PBM 8-mer E-score (mean of HK and ME arrays) (E-score (dimensionless, -0.5 to 0.5)); higher = stronger relative binding preference; most listed sequences are background and not binding sites. In a few lines:
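Reported values are rank-based E-scores, taken as the mean of two universal arrays and parsed with a custom script. Each 8-mer score falls between -0.5 and 0.5. The arrays, ME and HK, were double-stranded 60-mers with a constant 25-mer primer region and a variable 35-mer region covering all 8-mers. They were probed, by an earlier protocol, with full-length P. aeruginosa MvaT carrying an N-terminal glutathione S-transferase fusion.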
As for ATAACTCC, the “PBM 8-mer E-score” value was 0.236.

For the sequence TCGTTGAA, the “PBM 8-mer E-score” value was -0.118.

As for ATTACTAG, the “PBM 8-mer E-score” value came out at 0.268.

Regarding GAAGGGGA, the “PBM 8-mer E-score” value was -0.249.

For the sequence ATTCCTGG, the “PBM 8-mer E-score” value is 0.0037.

Take GCGGCCAA: the “PBM 8-mer E-score” value is -0.0824.

GGCTTGTA: the “PBM 8-mer E-score” value was -0.113.

As for ACATGGGA, the “PBM 8-mer E-score” value was -0.0795.

In the case of AGGCTCCA, the “PBM 8-mer E-score” value is -0.221.

CATATTAG: the “PBM 8-mer E-score” value turned out to be 0.305.

With CCCGTAAA, the “PBM 8-mer E-score” value was 0.0209.

Turning to CACAATTA, the “PBM 8-mer E-score” value was 0.316.

For ACACGGAC, the “PBM 8-mer E-score” value was -0.108.

Consider GACCGGTC, for which the “PBM 8-mer E-score” value is -0.179.

As for GTATGTAA, the “PBM 8-mer E-score” value worked out at 0.196.

Turning to GACCTTCC, the “PBM 8-mer E-score” value was -0.223.

Take CCGCTCCA: the “PBM 8-mer E-score” value is -0.162.

Regarding ACCCACCG, the “PBM 8-mer E-score” value was -0.122.

Regarding GATAAGCC, the “PBM 8-mer E-score” value was -0.109.

As to AGCGCACA, the “PBM 8-mer E-score” value is -0.135.

With GTAATCAC, the “PBM 8-mer E-score” value amounted to 0.12.

Turning to CCCCGTTC, the “PBM 8-mer E-score” value is -0.279.

As for AACCGTAC, the “PBM 8-mer E-score” value was -0.194.

With CACCGAAC, the “PBM 8-mer E-score” value is -0.204.

For the sequence ACGTTAAT, the “PBM 8-mer E-score” value is 0.314.

As for CACGCGTG, the “PBM 8-mer E-score” value amounted to 0.142.

In the case of TACCCAGA, the “PBM 8-mer E-score” value worked out at 0.0205.

As for CCGATCAG, the “PBM 8-mer E-score” value was -0.192.

Regarding CGTAGTTA, the “PBM 8-mer E-score” value worked out at 0.0756.

Regarding ATCGGGAA, the “PBM 8-mer E-score” value is -0.0197.

With GCCCCCAC, the “PBM 8-mer E-score” value is -0.198.

In the case of CTCCTCTC, the “PBM 8-mer E-score” value was -0.248.

Regarding ATCGAAGA, the “PBM 8-mer E-score” value was -0.0398.

For ACGAGGAC, the “PBM 8-mer E-score” value is -0.177.

Regarding CGCACTAA, the “PBM 8-mer E-score” value was 0.203.

For the sequence CGTATCGC, the “PBM 8-mer E-score” value is -0.0542.

For TACAGCCA, the “PBM 8-mer E-score” value is 0.0553.

TTCCACAA: the “PBM 8-mer E-score” value amounted to 0.14.

In the case of CGTAATAA, the “PBM 8-mer E-score” value was determined as 0.398.

Turning to ATGCAGGC, the “PBM 8-mer E-score” value is -0.0163.

For the sequence CGATCCAC, the “PBM 8-mer E-score” value was -0.203.

Regarding AAAGAGGC, the “PBM 8-mer E-score” value is -0.0241.

Take TGGCGTAA: the “PBM 8-mer E-score” value was 0.14.

For the sequence CCTCAAGG, the “PBM 8-mer E-score” value was -0.268.

For the sequence CAAGGCAG, the “PBM 8-mer E-score” value was -0.0831.

For the sequence AGGCGTGA, the “PBM 8-mer E-score” value was -0.147.

Regarding GAGCCGAA, the “PBM 8-mer E-score” value was -0.173.

With ACTGACAC, the “PBM 8-mer E-score” value is 0.095.

As for AAGGGAAT, the “PBM 8-mer E-score” value was -0.00272.

Take ATTCCACC: the “PBM 8-mer E-score” value turned out to be 0.00652.

AAGGATTG: the “PBM 8-mer E-score” value is -0.0828.

As to ACATCGTG, the “PBM 8-mer E-score” value was -0.0855.

Regarding AGCACCAA, the “PBM 8-mer E-score” value was -0.0599.

AACCGATC: the “PBM 8-mer E-score” value was -0.0759.

Consider GTCACATA, for which the “PBM 8-mer E-score” value came out at 0.0492.

In the case of CATCTCAC, the “PBM 8-mer E-score” value was -0.0373.

Consider CTCTCTCA, for which the “PBM 8-mer E-score” value was -0.132.

In the case of CACACACC, the “PBM 8-mer E-score” value was -0.0522.

Consider CTCCGGCC, for which the “PBM 8-mer E-score” value is -0.237.

For the sequence CCATCCGC, the “PBM 8-mer E-score” value was -0.0732.

For AAGTTTGT, the “PBM 8-mer E-score” value worked out at 0.249.

As to AGACAGCC, the “PBM 8-mer E-score” value is -0.154.

On to CCCTTTAA, for which the “PBM 8-mer E-score” value was found to be 0.0895.

On to TATACGGA, for which the “PBM 8-mer E-score” value is 0.123.

In the case of AAGTTCTC, the “PBM 8-mer E-score” value is -0.00886.

Take AGTAAGCG: the “PBM 8-mer E-score” value came out at 0.159.

For TATGCTAA, the “PBM 8-mer E-score” value is 0.11.

In the case of CCACCGTC, the “PBM 8-mer E-score” value was -0.258.

With CGGATCAC, the “PBM 8-mer E-score” value was -0.0365.

For GCCTTACA, the “PBM 8-mer E-score” value was -0.00875.

ATGCCGTA: the “PBM 8-mer E-score” value is -0.0404.

In the case of CGCATTGC, the “PBM 8-mer E-score” value was -0.2.

As for CACGCCTG, the “PBM 8-mer E-score” value is -0.124.

Regarding AAGTACCG, the “PBM 8-mer E-score” value was 0.0895.

On to CTGAACGA, for which the “PBM 8-mer E-score” value is -0.103.

Regarding GTTCTCTA, the “PBM 8-mer E-score” value is -0.00159.

As to CGCTTAGA, the “PBM 8-mer E-score” value was -0.0246.

For GAAGGTGC, the “PBM 8-mer E-score” value was -0.301.

For the sequence CATGCCAG, the “PBM 8-mer E-score” value is -0.173.

As for ACGATGTC, the “PBM 8-mer E-score” value is -0.14.

On to AGCGTTAT, for which the “PBM 8-mer E-score” value stood at 0.161.

Turning to CCAAGATA, the “PBM 8-mer E-score” value was 0.15.

For AACTGGCC, the “PBM 8-mer E-score” value is -0.0267.

Consider AAACCCTT, for which the “PBM 8-mer E-score” value was -0.0425.

On to GATATCTA, for which the “PBM 8-mer E-score” value amounted to 0.267.

Regarding CATCGCCA, the “PBM 8-mer E-score” value was -0.178.

Values taken from the supplement of paper PMC4466236.
